Over roughly 5,400 compounds, “IFI” has its median near 2; the highest 2% begin near 22. This is one part of the list.

A short description of this experiment: NOVARTIS: Inhibition Frequency Index (IFI) - the number of HTS assays where a compound showed > 50% inhibition/induction, expressed as a percentage of the number of assays in which the compound was tested. Type of experiment: functional.
`CC(C)(C)NS(=O)(=O)c1cc(Cl)ccc1Cl` returned an IFI of 0%.
Take `COc1ccc(-c2csc(Nc3cccc(Cl)c3C)n2)cc1OC`: the IFI was 0%.
`N#C/C(=C\c1cc2ccccc2nc1Cl)c1nc(-c2ccc(Cl)c(Cl)c2)cs1` registered an IFI of 0%.
The compound `Cn1c2ccncc2c2cc([N+](=O)[O-])ccc21` registered an IFI of 7.69%.
As for `Cc1ccc(S(=O)(=O)Oc2ccc(C=NN=C(N)N)cc2)cc1`, the IFI was 0%.
`COCCNC(=O)[C@@H]1C[C@@H](NCCC2=C(C)CCCC2(C)C)CN1C(C)C` showed an IFI of 1.92%.
`N#CCSc1nc2ccccc2c2nc(CCc3c[nH]c4ccccc34)nn12` gave an IFI of 0%.
The compound `N#C/C(=C\n1cc(Cc2ccc(Cl)cc2Cl)c2ccccc21)c1nn(CCO)c(N)c1C#N` showed an IFI of 0%.
The compound `CC(=O)Nc1ccc(S(=O)(=O)Nc2ccccc2[N+](=O)[O-])cc1` yielded an IFI of 0%.
With `COc1ccc(-c2cc(C(F)(F)F)n3nc(C(=O)NC4CCCCC4)c(Cl)c3n2)cc1OC`, the IFI was found to be 1.22%.
Compound `Cc1ccc(N=C2NC(=O)/C(=C\c3ccc(N(C)C)cc3)S2)cc1` showed an IFI of 0%.
`CSc1nccc(-c2cc(F)cc3c2OC(CNC(=O)C2CC(=O)c4ccccc42)C3)n1` (centres undefined) yielded an IFI of 0%.
Take `Cc1ccc2c(c1)N=C(c1ccc([N+](=O)[O-])cc1)CO2`: the IFI came out at 5.17%.
To `COC(=O)c1sccc1S(=O)(=O)N1CCCC(c2[nH]ncc2-c2ccccc2)C1` (centres undefined) belongs 3%; to `COC(=O)C1N(C(=O)OC)c2ccc([N+](=O)[O-])cc2S1(=O)=O` (centres undefined), 0%; to `Oc1c(C(Nc2ccccn2)c2cccc(Cl)c2Cl)ccc2cccnc12` (centres undefined), 15.4%.
As to `O=C(NCc1ccco1)c1ccc(OC2CCN(CC3CCCCC3)CC2)c(Cl)c1`, the IFI was 1.39%.
In turn, `CC(=NNC(=S)N(C)C)c1ccccn1` registered an IFI of 19.8%.
As to `O=C(NN=CC1CC=CCC1)c1ccc([N+](=O)[O-])cc1Cl` (centres undefined), the IFI is 0%.
`O=c1c2sccc2nc(SCc2cccc([N+](=O)[O-])c2)n1-c1ccc(Br)cc1`: the IFI is 0%.
As for `COc1cccc(-c2ccc(O)c(CNCC3CCCCC3)c2)n1`, the IFI came to 1.98%.
Compound `CCc1ccc(N(C(=O)CCN2CCc3ccccc32)C(C(=O)NCc2ccccc2)c2ccc(OC)c(OC)c2)cc1` (centres undefined) registered an IFI of 3.33%.
For `COc1ccc(/C=C2\N=C(c3ccc(Cl)cc3)N(c3cc(Cl)ccc3C)C2=O)cc1OC`, the IFI was 0%.
Consider `CCCCOc1ccc(NC2=NC3(CCCC3)NC(N)=N2)cc1`, for which the IFI is 0%.
With `Oc1ccc(C(CCNCCc2c[nH]c3ccccc23)c2ccccc2)cc1` (centres undefined), the IFI was 7.69%.
With `C[n+]1cccc(CNC2=C(Cl)C(=O)c3ccccc3C2=O)c1`, the IFI worked out at 0%.
`COc1ccccc1CNC(=O)c1nn(-c2ccc(Cl)cc2)c(=O)c2ccccc12` gave an IFI of 2.38%.
`Cn1cc(S(=O)(=O)c2cccc(Cl)c2)c(=O)c2cc(F)c(N3CCCCC3)cc21` registered an IFI of 0%.
Take `CCOC(=O)C1=C(C)N=c2sc(=Cc3ccccc3OCc3ccccc3)c(=O)n2C1c1ccccc1OC(C)C` (centres undefined): the IFI came to 0%.
In the case of `CCCCCC1CCCc2c1[nH]c1cc(Cl)ccc1c2=O` (centres undefined), the IFI was 0%.
Regarding `CC(CNC(=O)c1ccccc1)C(=O)OCC(=O)[C@@]12OC(C)(C)O[C@@H]1CC1C3CCC4=CC(=O)C=C[C@]4(C)[C@@]3(F)[C@@H](O)C[C@@]12C` (some centres undefined), the IFI amounted to 13.8%.
`O=C(Nc1ccc(O)cc1)c1cccc(S(=O)(=O)N2CCCCC2)c1` registered an IFI of 0%.
Compound `CC(=O)Nc1c(C)cc(Cl)cc1Cl` registered an IFI of 3.23%.
Compound `O=C(O)CC12CC3CC(C1)CC(c1ccc([N+](=O)[O-])cc1)(C3)C2` came in with an IFI of 0%.
With `CCCCCN(C(=O)c1cccc(F)c1)C(CC)c1nc2ccccc2c(=O)n1-c1ccc(Cl)cc1C` (centres undefined), the IFI was determined as 1.91%.
On to `COc1ccc(-n2cc(-c3ccccc3)[n+]3c2SCC3)cc1`, for which the IFI was 0%.
`CCc1ccc2[nH]c(=O)c(CN(CCN(C)C)C(=S)NCCCN(C)C)cc2c1`: the IFI was 3.7%.
The compound `Cc1ccc2c(C)nc(NC(=N)N)nc2c1` returned an IFI of 2.94%.
`c1cc2c(cc1Nc1c3c(nc4nncn14)CCC3)OCCO2` displayed an IFI of 0%.
Compound `CC1=NN(c2ccccc2)C(=O)C1=NNc1c(Br)cc(Br)cc1Br` returned an IFI of 0%.
The result for `COc1cc(C(C(=O)NCc2ccccc2)N(C(=O)c2snc(C(N)=O)c2N)c2ccc(C(C)C)cc2)cc(OC)c1OC` (centres undefined) reads 5.46%; that for `COc1ccc(C(=NO)C2CC2c2ccc(Cl)cc2)cc1` (centres undefined), 1.35%; that for `CN(CCCNc1ccnc2cc(Cl)ccc12)C(=O)C1CC1`, 2.78%.
`OCc1nc2ccccc2n1Cc1ccccc1F`: the IFI was 1.59%.
In turn, `Cc1ccc(-c2c[n+](Cc3cccc(C)c3)c3n2CCC3)cc1` had an IFI of 7.32%.
To `O=C1C=CC(=O)N1c1ccc(Sc2ccc(N3C(=O)C=CC3=O)cc2)cc1` belongs 12.8%; to `O=C(/C=C/c1ccccn1)NCC1Cc2cc(-c3cnccn3)ccc2O1` (centres undefined), 0%; to `O=C(Cn1cc([N+](=O)[O-])nc1[N+](=O)[O-])N1CCN(c2ccc(F)cc2)CC1`, 4.25%.
With `CCCCCCCCCn1c2c(c(=N)c3c1CCC3)CCCC2`, the IFI worked out at 21.3%.
Consider `COc1ccc(Cn2c(C)nc3cc(NC(=O)Nc4ccccc4)c(C)nc32)cc1`, for which the IFI stood at 0%.
The compound `O=C(Nc1ccccc1[N+](=O)[O-])C1CC1(c1ccccc1)c1ccccc1` (centres undefined) had an IFI of 0%.
The compound `Cc1nn(C(=O)NS(=O)(=O)c2ccccc2Cl)c(C)c1C` returned an IFI of 0%.
The compound `O=C(/C=C/c1cccnc1)C12CC3CC(CC(C3)C1)C2` registered an IFI of 0%.
To `CCOC(=O)C1CCCN(C(=O)c2c(C)oc3c2C(=O)c2ccccc2C3=O)C1` (centres undefined) belongs 6.25%.
Consider `COc1ccc2c(c1)C(C)=CC(C)(C)N2C(=O)CSc1nnc(-c2ccc(C)cc2)o1`, for which the IFI is 0%.
Turning to `O=C(NCc1ccccc1)NC1CC2CCCC(C1)N2Cc1ccccc1` (centres undefined), the IFI amounted to 3.95%.
For `O=c1c(NCc2ccco2)nc2cc(Cl)ccc2n1CCNc1ncc(C(F)(F)F)cc1Cl`, the IFI is 2.47%.
To `C[n+]1ccc(/C=C/c2ccccc2F)c2ccccc21` belongs 14.3%; to `COc1cccc2cc(-c3csc(NC(=O)CCC(=O)NC4CCCC4)n3)c(=O)oc12`, 2.35%.

For the origin of these results see ChEMBL document CHEMBL1156829.
